# Assay results published in publication PMC3242779.
# Sequences of proteins named here, by UniProt entry; tags and fusion partners are left off.
# UniProt Q7KZI7: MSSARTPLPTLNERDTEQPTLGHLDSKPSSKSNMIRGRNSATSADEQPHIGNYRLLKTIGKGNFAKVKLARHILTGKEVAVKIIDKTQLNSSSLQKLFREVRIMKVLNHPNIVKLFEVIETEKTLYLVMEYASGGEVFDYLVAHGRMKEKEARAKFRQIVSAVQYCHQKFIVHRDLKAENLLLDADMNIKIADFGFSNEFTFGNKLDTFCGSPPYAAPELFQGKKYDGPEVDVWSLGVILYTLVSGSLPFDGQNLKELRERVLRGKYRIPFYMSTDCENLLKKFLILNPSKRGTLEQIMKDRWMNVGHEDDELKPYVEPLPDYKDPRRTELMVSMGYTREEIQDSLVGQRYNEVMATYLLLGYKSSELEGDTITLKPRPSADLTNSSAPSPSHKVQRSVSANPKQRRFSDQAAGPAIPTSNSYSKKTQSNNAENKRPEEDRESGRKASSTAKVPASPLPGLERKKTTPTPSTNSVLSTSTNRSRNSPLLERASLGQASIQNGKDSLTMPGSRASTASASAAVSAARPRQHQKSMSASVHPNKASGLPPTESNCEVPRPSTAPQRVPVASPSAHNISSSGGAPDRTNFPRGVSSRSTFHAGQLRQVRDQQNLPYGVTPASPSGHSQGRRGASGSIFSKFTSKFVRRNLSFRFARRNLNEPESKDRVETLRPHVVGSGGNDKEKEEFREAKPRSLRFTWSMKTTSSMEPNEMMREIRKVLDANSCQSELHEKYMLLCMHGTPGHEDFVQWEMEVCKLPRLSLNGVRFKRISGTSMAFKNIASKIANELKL
# UniProt P27448: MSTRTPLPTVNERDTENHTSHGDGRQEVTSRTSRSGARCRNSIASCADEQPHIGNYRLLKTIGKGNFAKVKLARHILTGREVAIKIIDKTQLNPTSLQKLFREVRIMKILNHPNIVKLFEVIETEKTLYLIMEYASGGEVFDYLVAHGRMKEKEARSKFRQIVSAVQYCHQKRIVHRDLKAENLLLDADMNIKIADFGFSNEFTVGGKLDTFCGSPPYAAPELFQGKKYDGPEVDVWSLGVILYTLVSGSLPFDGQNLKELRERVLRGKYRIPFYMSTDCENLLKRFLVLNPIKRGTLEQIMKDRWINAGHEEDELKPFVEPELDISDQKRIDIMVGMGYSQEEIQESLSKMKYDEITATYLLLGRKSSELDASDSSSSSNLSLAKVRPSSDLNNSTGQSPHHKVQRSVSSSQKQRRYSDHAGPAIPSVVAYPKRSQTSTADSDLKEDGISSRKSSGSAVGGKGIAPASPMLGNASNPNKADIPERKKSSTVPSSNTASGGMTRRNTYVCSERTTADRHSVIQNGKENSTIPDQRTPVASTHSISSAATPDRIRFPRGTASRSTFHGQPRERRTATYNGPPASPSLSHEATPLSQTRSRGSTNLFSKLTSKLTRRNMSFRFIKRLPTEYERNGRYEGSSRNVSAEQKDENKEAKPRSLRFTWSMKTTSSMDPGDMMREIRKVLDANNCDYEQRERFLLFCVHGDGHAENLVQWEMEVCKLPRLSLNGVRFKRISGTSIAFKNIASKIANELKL
# Numbering of substitutions follows the chain as printed. Numbers in names are those of the source. These are yes or no findings as the source states them, for the method shown. Binding seen in cells or lysates may run through a third protein. Some results given as binding are weak or reduced against the parent protein; the word gives no strength. Where a sequence is shown, tags or fusion partners need not be part of it.
# T1: KSR1-FLAG (wild type) (UniProt Q61097)
# T1 sequence: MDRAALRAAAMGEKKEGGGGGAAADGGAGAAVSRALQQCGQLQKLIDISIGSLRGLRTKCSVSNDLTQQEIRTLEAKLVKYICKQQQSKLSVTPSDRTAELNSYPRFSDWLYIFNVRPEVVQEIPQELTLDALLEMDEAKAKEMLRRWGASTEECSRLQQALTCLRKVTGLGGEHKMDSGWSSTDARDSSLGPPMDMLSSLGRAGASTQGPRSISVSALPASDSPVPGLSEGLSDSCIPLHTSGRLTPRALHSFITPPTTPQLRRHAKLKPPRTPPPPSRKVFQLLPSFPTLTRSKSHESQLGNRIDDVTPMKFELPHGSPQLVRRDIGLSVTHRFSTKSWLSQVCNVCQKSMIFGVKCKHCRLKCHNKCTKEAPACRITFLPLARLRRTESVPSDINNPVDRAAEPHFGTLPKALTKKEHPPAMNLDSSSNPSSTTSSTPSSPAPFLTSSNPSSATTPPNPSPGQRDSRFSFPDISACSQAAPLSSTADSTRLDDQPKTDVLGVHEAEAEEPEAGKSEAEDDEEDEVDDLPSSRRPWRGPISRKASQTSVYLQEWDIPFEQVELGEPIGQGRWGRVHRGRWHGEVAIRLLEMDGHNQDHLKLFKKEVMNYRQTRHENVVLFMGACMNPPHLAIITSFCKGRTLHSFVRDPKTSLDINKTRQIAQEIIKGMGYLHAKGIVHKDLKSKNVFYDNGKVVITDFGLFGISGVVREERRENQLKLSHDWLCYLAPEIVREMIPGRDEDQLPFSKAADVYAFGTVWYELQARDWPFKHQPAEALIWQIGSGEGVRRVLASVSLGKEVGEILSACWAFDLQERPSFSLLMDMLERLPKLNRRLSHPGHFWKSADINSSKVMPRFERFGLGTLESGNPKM
# B1: KSR1 N539 lacking the residues from 378-427 (FLAG-tagged) (domain or fragment, UniProt Q61097)
# chain: MDRAALRAAAMGEKKEGGGGGAAADGGAGAAVSRALQQCGQLQKLIDISIGSLRGLRTKCSVSNDLTQQEIRTLEAKLVKYICKQQQSKLSVTPSDRTAELNSYPRFSDWLYIFNVRPEVVQEIPQELTLDALLEMDEAKAKEMLRRWGASTEECSRLQQALTCLRKVTGLGGEHKMDSGWSSTDARDSSLGPPMDMLSSLGRAGASTQGPRSISVSALPASDSPVPGLSEGLSDSCIPLHTSGRLTPRALHSFITPPTTPQLRRHAKLKPPRTPPPPSRKVFQLLPSFPTLTRSKSHESQLGNRIDDVTPMKFELPHGSPQLVRRDIGLSVTHRFSTKSWLSQVCNVCQKSMIFGVKCKHCRLKCHNKCTKEAPACDSSSNPSSTTSSTPSSPAPFLTSSNPSSATTPPNPSPGQRDSRFSFPDISACSQAAPLSSTADSTRLDDQPKTDVLGVHEAEAEEPEAGKSEAEDDEEDEVDDLPSSRRPWR
# B2: KSR1-FLAG (wild type) (protein, UniProt Q61097 1-873)
# chain: T1 sequence
# B3: KSR1 N539 (FLAG-tagged) (domain or fragment, UniProt Q61097 1-539)
# chain: MDRAALRAAAMGEKKEGGGGGAAADGGAGAAVSRALQQCGQLQKLIDISIGSLRGLRTKCSVSNDLTQQEIRTLEAKLVKYICKQQQSKLSVTPSDRTAELNSYPRFSDWLYIFNVRPEVVQEIPQELTLDALLEMDEAKAKEMLRRWGASTEECSRLQQALTCLRKVTGLGGEHKMDSGWSSTDARDSSLGPPMDMLSSLGRAGASTQGPRSISVSALPASDSPVPGLSEGLSDSCIPLHTSGRLTPRALHSFITPPTTPQLRRHAKLKPPRTPPPPSRKVFQLLPSFPTLTRSKSHESQLGNRIDDVTPMKFELPHGSPQLVRRDIGLSVTHRFSTKSWLSQVCNVCQKSMIFGVKCKHCRLKCHNKCTKEAPACRITFLPLARLRRTESVPSDINNPVDRAAEPHFGTLPKALTKKEHPPAMNLDSSSNPSSTTSSTPSSPAPFLTSSNPSSATTPPNPSPGQRDSRFSFPDISACSQAAPLSSTADSTRLDDQPKTDVLGVHEAEAEEPEAGKSEAEDDEEDEVDDLPSSRRPWR
# B4: KSR1 N539 I397A/V401A (FLAG-tagged) (domain or fragment, UniProt Q61097 1-539)
# chain: B3 chain with I397A, V401A
# Target: MARK2-HA (UniProt Q7KZI7)
# Assay: co-IP; KSR1-FLAG (WT or mutants) co-transfected with MARK2-HA or C-TAK1-HA in 293T cells; lysed 36 h later in NP40 lysis buffer (20 mM Tris pH 8, 137 mM NaCl, 10% glycerol, 1% NP40); anti-FLAG-agarose or anti-HA-agarose overnight at 4°C; western blot with antibodies to the epitope tags
row,binding,Molecule
1,binds,B1
2,binds,B2
3,binds,B3
4,binds,B4

# Target: C-TAK1-HA (UniProt P27448)
# Assay: as above
row,binding,Molecule
1,binds,B1
2,binds,B2
3,binds,B3
4,no binding,B4

# Target: T1, KSR1-FLAG (wild type)
# Assay: as above
row,binding,Molecule
1,binds,C-TAK1-HA (from UniProt P27448 1-753) (enzyme)
2,binds,MARK2-HA (from UniProt Q7KZI7 1-788) (enzyme)
